Some of the results follow.

The test deals with HSkMC (human skeletal muscle cells). As to the kind of experiment: cytotoxicity call (relative viability < 0.9). Particulars: 10 µM.
In the case of `Cn1c(=O)c2[nH]c(NCCN3CCOCC3)nc2n(C)c1=O`, the cytotoxicity call was “inactive”.

As to `C[C@H](CO)N1C[C@H](C)[C@@H](CN(C)C(=O)c2ccccc2)OCCCC[C@H](C)Oc2ccc(NC(=O)Nc3ccc(F)cc3)cc2C1=O`, the cytotoxicity call was “inactive”.

`C[C@@H](O)C#Cc1ccc2c(c1)O[C@@H](CN(C)C(=O)C1CCCCC1)[C@@H](C)CN([C@@H](C)CO)S2(=O)=O`: the cytotoxicity call is “inactive”.

Turning to `C[C@@H]1CCCCO[C@H](CN(C)C(=O)c2ccccc2)[C@H](C)CN([C@@H](C)CO)C(=O)c2cc(NC(=O)Cc3ccccc3)ccc2O1`, the cytotoxicity call was “inactive”.

As to `CNS(=O)(=O)c1cccs1`, the cytotoxicity call was “inactive”.

For `CN1CCCN=C1C=Cc1cccs1.O=C(O)c1cc2ccccc2c(Cc2c(O)c(C(=O)O)cc3ccccc23)c1O`, the cytotoxicity call is “inactive”.

For `C[C@@H]1CN([C@@H](C)CO)C(=O)Cc2cc(NC(=O)CCCCCC(=O)Nc3ccccc3N)ccc2O[C@H]1CN(C)S(=O)(=O)c1cn(C)cn1`, the cytotoxicity call is “inactive”.

As to `COc1ccccc1CNC(=O)C[C@@H]1C[C@H]2c3cc(NC(=O)C4CCOCC4)ccc3O[C@H]2[C@@H](CO)O1`, the cytotoxicity call was “inactive”.

Regarding `CC(=O)ON1C(C)(C)C=C(C(N)=O)C1(C)C`, the cytotoxicity call was “inactive”.

`C[C@@H]1CN([C@@H](C)CO)C(=O)Cc2cc(NC(=O)Cn3cnnn3)ccc2O[C@@H]1CN(C)Cc1ccccc1`: the cytotoxicity call was “inactive”.

On to `C[C@@H]1CN([C@@H](C)CO)C(=O)Cc2cc(NC(=O)Cc3ccccc3)ccc2O[C@@H]1CN(C)Cc1ccc(Cl)c(Cl)c1`, for which the cytotoxicity call was “active”.

Turning to `CCN1C(=O)CN(CC(=O)O)C1=O`, the cytotoxicity call was “inactive”.

`C=CCCC(=O)O[C@@H](c1ccccc1)[C@@H](C)N(C)C(=O)[C@H](CC=C)NC(=O)OCC1c2ccccc2-c2ccccc21`: the cytotoxicity call is “inactive”.

Turning to `C[C@H](CO)N1C[C@H](C)[C@@H](CN(C)Cc2ccc(-c3ccccc3)cc2)Oc2c(NC(=O)NC3CCCCC3)cccc2C1=O`, the cytotoxicity call is “inactive”.

In the case of `Cn1cnc(S(=O)(=O)N2C[C@H](O)COC[C@@H]3O[C@@H](CC(=O)NCc4cc(F)cc(F)c4)CC[C@H]32)c1`, the cytotoxicity call is “inactive”.

`CN1C(=O)c2cc(NC(=O)c3cnccn3)ccc2OC[C@H]2O[C@@H](CC(=O)N[C@@H]3CCN(Cc4ccccc4)C3)CC[C@@H]21`: the cytotoxicity call was “inactive”.

As to `CCS(=O)(=O)Nc1ccc2c(c1)C(=O)N(C)[C@H]1CC[C@H](CC(=O)NCc3ccccc3F)O[C@H]1CO2`, the cytotoxicity call is “inactive”.

Turning to `O=C(C[C@@H]1CC[C@@H]2[C@H](COC[C@H](O)CN2S(=O)(=O)c2cccc(Cl)c2)O1)NCCCN1CCOCC1`, the cytotoxicity call is “inactive”.

For the compound `CCCCCCc1ccc(O)cc1O`, the cytotoxicity call was “active”.

Regarding `CCCNC1CCc2nc(N)sc2C1.Cl.Cl` (stereo not given), the cytotoxicity call is “inactive”.

For `C[C@H]1CN([C@@H](C)CO)C(=O)Cc2cc(NS(C)(=O)=O)ccc2O[C@@H]1CN(C)Cc1ccc2c(c1)OCO2`, the cytotoxicity call is “inactive”.

In the case of `C[C@@H]1CN([C@@H](C)CO)C(=O)c2cc(NC(=O)Nc3ccccc3)ccc2O[C@@H](C)CCCCO[C@H]1CN(C)Cc1ccc(C(=O)O)cc1`, the cytotoxicity call is “inactive”.

`C[C@@H]1CC[C@@]2(OC1)O[C@H]1C[C@H]3[C@H]4C[C@@H](O)[C@H]5C[C@@H](O[C@@H]6O[C@H](CO)[C@H](O[C@@H]7O[C@H](CO)[C@@H](O)[C@H](O[C@@H]8OC[C@@H](O)[C@H](O)[C@H]8O)[C@H]7O[C@@H]7O[C@H](CO)[C@@H](O)[C@H](O)[C@H]7O)[C@H](O)[C@H]6O)CC[C@]5(C)[C@@H]4CC[C@]3(C)[C@H]1[C@@H]2C`: the cytotoxicity call was “active”.

Turning to `CC(=O)N(C)C[C@H]1Oc2ncc(C#C[C@@H](C)O)cc2C(=O)N([C@H](C)CO)C[C@H]1C`, the cytotoxicity call was “inactive”.

As to `N[C@@H]1CCCN(c2c(Br)cnc3[nH]cc(NC(=O)C4CC4)c23)C1`, the cytotoxicity call was “active”.

With `COC[C@@H]1CN(C)C(=O)[C@H]2CCN(S(=O)(=O)N(C)C)CC[C@@H]12`, the cytotoxicity call is “inactive”.

Regarding `CC(=O)C1C(=O)C=C(C)OC1=O` (stereo not given), the cytotoxicity call was “inactive”.

In the case of `COc1cc(OC)c(C(=O)CCCN2CCCC2)c(OC)c1.Cl`, the cytotoxicity call is “inactive”.

For the compound `C[C@H](CO)N1C[C@H](C)[C@H](CN(C)Cc2ccc(C(=O)Nc3ccccc3N)cc2)Oc2ccc(NS(=O)(=O)c3cn(C)cn3)cc2CC1=O`, the cytotoxicity call was “inactive”.

For the compound `C[C@H]1CN([C@@H](C)CO)C(=O)Cc2cc(NS(=O)(=O)c3ccc(Cl)cc3)ccc2O[C@H]1CN(C)Cc1ccc(-c2ccccc2)cc1`, the cytotoxicity call is “active”.

Take `O=C(C[C@H]1CC[C@@H]2[C@H](COC[C@H](O)CN2C(=O)Nc2cc(Cl)cc(Cl)c2)O1)N1CCOCC1`: the cytotoxicity call is “inactive”.

Turning to `COCCNC(=O)C[C@@H]1CC[C@@H]2[C@H](COc3ccc(NS(=O)(=O)c4ccc(Cl)cc4)cc3C(=O)N2C)O1`, the cytotoxicity call is “inactive”.

As to `C[C@H](CO)N1C[C@H](C)[C@@H](CN(C)Cc2ccncc2)Oc2ccc(NC(=O)c3ccncc3)cc2C1=O`, the cytotoxicity call was “inactive”.

Consider `CC(C)NC(=O)N(C)C[C@H]1Oc2ccc(NC(=O)CCN3CCOCC3)cc2C(=O)N([C@H](C)CO)C[C@H]1C`, for which the cytotoxicity call is “inactive”.

Consider `C[C@@H]1CN([C@@H](C)CO)C(=O)c2cccc(NS(=O)(=O)c3cccs3)c2O[C@@H]1CN(C)Cc1ccc(-c2ccccc2)cc1`, for which the cytotoxicity call was “inactive”.

Regarding `C[C@H]1CCCCO[C@H](CN(C)Cc2ccc3c(c2)OCO3)[C@@H](C)CN([C@@H](C)CO)C(=O)c2cc(NS(=O)(=O)c3cccs3)ccc2O1`, the cytotoxicity call was “inactive”.

On to `C[C@@H]1CN([C@H](C)CO)C(=O)c2cc(NC(=O)CCC(F)(F)F)ccc2O[C@@H](C)CCCCO[C@H]1CN(C)Cc1ccccc1`, for which the cytotoxicity call was “inactive”.

Consider `CC(C)CSc1ncnc2scc(-c3ccccc3)c12`, for which the cytotoxicity call was “inactive”.

As to `C=CCN(Cc1ccccc1)C(=O)[C@@H]1N(c2c(Cl)cccc2CO)C(=O)[C@@H]2[C@H](C(=O)O)[C@@H]3C=C[C@@]21O3`, the cytotoxicity call is “inactive”.

Consider `COc1ccc(NC(=O)N(C)C[C@@H]2OCCCC[C@@H](C)Oc3ccc(NC(=O)Nc4ccc5c(c4)OCO5)cc3C(=O)N([C@@H](C)CO)C[C@H]2C)cc1`, for which the cytotoxicity call is “inactive”.

The values are drawn from the antibiotic and cytotoxicity screens of Wong et al. (2023).
